{"source": "PubChem BioAssay AID588342", "about": "(National Center for Advancing Translational Sciences (NCATS), 2011)", "note": "The campaign covered roughly 360,000 compounds. About 25,000 (6.9%) were called active. Inconclusive means that the source gave no clear call. Such entries were picked first, then a sample of the others. Calls follow the shape of the dose curve; as a rule, active = well fitted inhibition curve with a large enough effect; inconclusive = small, poorly fitted or top-dose-only effect; inactive = flat fitted curve, though single readings scatter. Potencies beside an inconclusive call are fits to weak or partial responses and may not hold up. Potency is read from the fitted curve at half-maximal effect; tags tell the direction and shape of the fitted curve.", "data": [{"target": "Luciferin 4-monooxygenase (Photinus pyralis) (UniProt P08659)", "sequence (P08659 whole entry, looked up)": "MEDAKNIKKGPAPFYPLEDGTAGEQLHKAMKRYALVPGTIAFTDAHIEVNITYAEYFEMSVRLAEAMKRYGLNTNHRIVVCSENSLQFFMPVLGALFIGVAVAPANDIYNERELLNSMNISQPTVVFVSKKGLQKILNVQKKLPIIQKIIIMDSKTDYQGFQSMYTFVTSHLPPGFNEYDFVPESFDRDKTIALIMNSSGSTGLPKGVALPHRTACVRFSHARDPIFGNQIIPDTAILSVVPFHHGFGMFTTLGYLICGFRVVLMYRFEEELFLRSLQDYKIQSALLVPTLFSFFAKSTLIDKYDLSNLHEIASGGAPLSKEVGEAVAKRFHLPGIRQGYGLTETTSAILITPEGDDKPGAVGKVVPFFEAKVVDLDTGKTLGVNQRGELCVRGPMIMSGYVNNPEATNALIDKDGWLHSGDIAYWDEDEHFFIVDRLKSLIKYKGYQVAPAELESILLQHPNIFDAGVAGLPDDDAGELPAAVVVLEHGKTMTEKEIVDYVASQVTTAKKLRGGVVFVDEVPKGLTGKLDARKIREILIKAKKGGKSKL", "experiment": "qHTS profiling assay for firefly luciferase inhibitor/activator using purifed enzyme and Km concentrations of substrates (counterscreen for miR-21 project); also: nearly all actives have a fitted effect of over 55% in size", "conditions": "purified FLuc, luminescence inhibition; series mostly up to 57.5 µM", "how_it_was_run": "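Purified P. pyralis luciferase (10nM final) with 10uM D-luciferin and 10uM ATP (Km levels) in 50mM Tris acetate pH 7.5, 10mM Mg acetate, 0.01% Tween-20, 0.05% BSA; qHTS 6-point titration, ~60 µM downward; luminescence read.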", "values": [{"smiles": "CCOC(=O)c1ccc(NC(=O)C(C)N(c2ccc(OCC)cc2)S(C)(=O)=O)cc1", "note": "(stereo unspecified)", "Potency": "inactive"}, {"smiles": "Cc1cccc(CNC(=O)Cc2ccc(NC(=O)N3CCCCc4ccccc43)cc2)c1", "Potency": "inconclusive: 21.3 µM [inhibitor, partial curve, poor fit]"}, {"smiles": "CCN(CC)CCn1c2c(c(SCC(=O)Nc3cccc(C(F)(F)F)c3)nc1=O)CCC2", "Potency": "inactive"}, {"smiles": "O=C(Nc1ccc(N2CCCC2)c(Cl)c1)c1ccc([N+](=O)[O-])o1", "Potency": "active: 7.57 µM"}, {"smiles": "Cc1ccc(C(=O)CSc2cnc3ccccc3n2)cc1C", "Potency": "active: 7.57 µM"}, {"smiles": "COc1ccc(C(=O)Nc2ccc(C)c(S(=O)(=O)N3CCCCCC3)c2)cc1", "Potency": "inconclusive: 23.9 µM [inhibitor, partial curve, poor fit]"}, {"smiles": "CCC(C)[C@H](NC(=O)N1CC(=O)Nc2ccccc21)C(=O)N[C@@H](C(=O)O)c1ccccc1", "note": "(stereo partly specified)", "Potency": "inactive"}, {"smiles": "Cc1cccc(Nc2c(F)c(F)c(F)c(F)c2C(=O)O)c1", "Potency": "inconclusive: 15.1 µM [inhibitor, partial curve]"}, {"smiles": "Cn1c2ccccc2c(=O)c2cc(C#Cc3ccsc3)ccc21", "Potency": "active: 2.39 µM"}, {"smiles": "COc1ccccc1NC(=O)c1coc(=O)c(Br)c1", "Potency": "inactive"}, {"smiles": "O=C(/C=C/c1ccc(Cl)cc1)Nc1ccc(S(=O)(=O)Nc2ncccn2)cc1", "Potency": "inconclusive: 8.49 µM [inhibitor, full curve]"}, {"smiles": "O=C(Nc1ccc(F)cc1F)c1csc(-c2ccccc2)n1", "Potency": "inconclusive: 13.5 µM [inhibitor, partial curve]"}, {"smiles": "O=C(c1cc(COc2ccc(F)cc2Cl)on1)N1CCc2sccc2C1", "Potency": "inconclusive: 26.9 µM [inhibitor, single point]"}, {"smiles": "CCCc1ccc(-c2csc(NC(=O)Cc3cccs3)n2)cc1", "Potency": "inconclusive: 5.36 µM [inhibitor, partial curve, poor fit]"}, {"smiles": "Cc1cc(NC(=O)c2cc3ccccc3o2)ccc1NC(=O)c1ccccc1", "Potency": "inconclusive: 10.7 µM [inhibitor, partial curve]"}, {"smiles": "COc1ccccc1C(=O)COC(=O)c1ccc(N(C)C)cc1", "Potency": "active: 5.36 µM"}, {"smiles": "CCC(C)(C(=O)NC1CCCCC1)N(C(=O)c1ccccn1)c1ccccc1", "note": "(stereo unspecified)", "Potency": "inactive"}, {"smiles": "COc1ccc(/C=C2\\SC(=S)N(CCC(=O)NCCCN3CCOCC3)C2=O)cc1", "Potency": "active: 16.9 µM"}, {"smiles": "CC(C)(C)c1ccc(C(=O)O/N=C(\\N)c2ccccc2)cc1", "Potency": "active: 0.757 µM"}, {"smiles": "O=C(NCCCN1CCN(c2ccc(F)cc2)CC1)c1sc2ncccc2c1-n1cccc1", "Potency": "inactive"}, {"smiles": "CCOc1cc(/C=C(\\C#N)C(=O)Nc2ccccn2)ccc1O", "Potency": "active: 16.9 µM"}]}]}
